According to the RNAGym collection of RNA variant scans (doi:10.7554/elife.90254):
Read counts are not given, so values of variants with three or more changes are uncertain.

B1: OR4K15 (parent)
chain: GUUAACGGUCAUAGGCCAUGGAAACUAGGAGCACCAUUUCGCUGCCAGUGAAGAAAUGAACAAAGAAAAUCUGGGCCAGGCAGGCAUCAAAAGAAAUAGUCUUGCGCUCAACCAGAAAGUCUGUAAUCAUUUUAAGGGUA

Variants of: B1
Experiment: self-cleavage, relative activity (ratio to wild type); higher = more cleavage; in vitro, sequencing; the parent is a self-cleaving ribozyme
A11G A36G A51G A82U A96G showed a self-cleavage of 0.36.
A11G G15A G48U gave a self-cleavage of 0.81.
A11G A30U A68G A91G A92G U124C showed a self-cleavage of 0.43.
With A11C A94U U131C the self-cleavage was 1.9.
C10U A52U A55G U57C gave a self-cleavage of 0.45.
In the case of U9C U37C A96U C105G, the self-cleavage is reported as 0.04.
U9C U39A U49C A116G U122C showed a self-cleavage of 0.69.
For A11G A86G A111G, the self-cleavage was 0.04.
U9C C17U U38C gave a self-cleavage of 1.42.
A11G A78G A86G showed a self-cleavage of 0.2.
Work on C10A A11G A94U A110G yielded a self-cleavage of 0.06.
A11G G58U A86U A118G gave a self-cleavage of 1.04.
Work on A11G A51G A94G A96G yielded a self-cleavage of 0.67.
Variant U9C G83A A94G has a self-cleavage of 2.06.
With U9C G14A A56C A60G C77G A78G A116G the self-cleavage was 0.06.
Variant A11G A54G U72C has a self-cleavage of 0.37.
With A11G A36G A60G U103C A140G the self-cleavage was 1.03.
A11C U19A U38C U43C A55G A134G showed a self-cleavage of 0.88.
In the case of U9C G48U A90G, the self-cleavage is reported as 1.5.
Variant A11G A69G A111G U124C has a self-cleavage of 0.01.
For C10U A63G A90G A91G, the self-cleavage was 0.71.
In the case of A11G A23G C35A A52G A63G A64G, the self-cleavage is reported as 0.66.
Work on C10U U70C A117G yielded a self-cleavage of 0.83.
In the case of U9C U37C A60G A95G, the self-cleavage is reported as 1.58.
A11G U12A A13G showed a self-cleavage of 0.98.
Work on A11G U39C A68G U122A yielded a self-cleavage of 1.47.
A11G A23G A82G A96G A129U showed a self-cleavage of 0.46.
A11G G41A A56G A68G A140G gave a self-cleavage of 1.22.
A11G A67G A116G gave a self-cleavage of 0.42.
A11C G29A A59U A69G A110C showed a self-cleavage of 0.23.
In the case of A11C A18G A23G U49C A67G A82G, the self-cleavage is reported as 0.36.
With A11G A68G U131C the self-cleavage was 0.52.
In the case of A11G A13G U43C, the self-cleavage is reported as 1.02.
In the case of U9C U19G A33U A94G A116G, the self-cleavage is reported as 1.07.
Variant A11G A68U C88A U130C has a self-cleavage of 0.96.
For A11G A24G A59U, the self-cleavage was 0.86.
Work on U9C U37C U72G U122C U133A A134U yielded a self-cleavage of 0.07.
In the case of U9C U39C A68G, the self-cleavage is reported as 1.32.
A11G U26C U70C U72C A89U gave a self-cleavage of 0.29.
U9C A114G U139C showed a self-cleavage of 0.41.
A11C U49C U97A gave a self-cleavage of 1.61.
In the case of A11G A22G A63C, the self-cleavage is reported as 0.79.
C10A U26G A33G U43A A68G gave a self-cleavage of 0.24.
Variant U9C U19C U43G A94U has a self-cleavage of 1.9.
Work on A11G A56G A59G yielded a self-cleavage of 1.49.
For U9G A59G A90U U122C, the self-cleavage was 0.56.
For A11G A51G A67G A68G U122A, the self-cleavage was 0.66.
A11G A36U A69G gave a self-cleavage of 0.51.
Variant U9C G79A U122C has a self-cleavage of 0.1.
U9C A96G U100C gave a self-cleavage of 2.82.
Variant U9C C40U U132A has a self-cleavage of 0.51.
Variant A11G A66U A129G has a self-cleavage of 1.26.
Work on A11G U39A A62U U130C yielded a self-cleavage of 0.36.
U9C U12C A56G A69G showed a self-cleavage of 1.2.
In the case of A11G U12C U37C U57C A118G U130C U132C, the self-cleavage is reported as 0.35.
Work on A11G A33U A67G U72A U87A A96G A117G yielded a self-cleavage of 0.34.
Work on A11C A78G A94G yielded a self-cleavage of 0.3.
With U9C C113U A116G the self-cleavage was 0.06.
With U9C U57G A116G the self-cleavage was 0.32.
For A11G A36U G44A A68G, the self-cleavage was 0.54.
For A11G A78G A91G, the self-cleavage was 0.13.
A11G A30U U37C gave a self-cleavage of 1.32.
Work on U9C U38A U108A yielded a self-cleavage of 0.09.
In the case of U9C U108A U132C, the self-cleavage is reported as 0.01.
A11G A30G A63G A86G U139C A140G gave a self-cleavage of 1.04.
With A11C U103C C128U A129G the self-cleavage was 0.68.
With U9C U37C G53A A60G U127C the self-cleavage was 0.88.
With U9C A114G U127C U131C the self-cleavage was 0.07.
U9G G15A A110U showed a self-cleavage of 0.55.
C10A U43A A56G showed a self-cleavage of 0.48.
Work on A11G A36G A51G A62U A94G yielded a self-cleavage of 1.39.
With C10U U108C A111G the self-cleavage was 0.01.
Variant A11G A82C U127A has a self-cleavage of 0.4.
For U9C U37C A116U, the self-cleavage was 0.43.
For U9C U38C U139C, the self-cleavage was 2.29.
In the case of C10A A94G A116G, the self-cleavage is reported as 0.24.
For A11G A24G U102C, the self-cleavage was 1.1.
Work on U9C U39C U49G A51G yielded a self-cleavage of 1.34.
Variant A11G A24G A69G A90G has a self-cleavage of 1.07.
A11G U37C A94G C112U U122C showed a self-cleavage of 0.01.
In the case of A11G U38C U57C A62G U108C, the self-cleavage is reported as 0.07.
With U9C G28U A114G the self-cleavage was 0.19.
In the case of A11G A23G A51G U108A A126G, the self-cleavage is reported as 0.01.
A11G A30G U39A showed a self-cleavage of 0.93.
